Screen size: about 310,000 compounds; about 18,000 (5.8%) were called active. Inconclusive means that the source gave no clear call. Such entries were picked first, then a sample of the others. The call rests on the fitted dose curve; in most records, active means well fitted inhibition curve with a large enough effect; inconclusive means small, poorly fitted or top-dose-only effect, or another doubt; inactive means no such curve, though single readings can be large or run the other way. Potencies of inconclusive entries are left out as doubtful fits.
Assay: Primary qHTS for delayed death inhibitors of the malarial parasite plastid, 48 hour incubation
Conditions: P. falciparum luciferase growth in erythrocytes; series mostly up to 28.7 µM
Outline: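 First compound was added to culture medium, then infected red cells at 0.1% parasitemia and 2% hematocrit (final). After incubation at 37 C under 5% CO2, luciferase detection reagent was dispensed and light output recorded.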
Potency means the concentration at half of the fitted maximal effect; tags describe the fitted curve by direction and shape.

Row | Structure (SMILES) | Potency
1 | CCc1ccc(C2=NN(CCC(=O)NCc3cccs3)C(=O)CC2)cc1 | inconclusive [inhibitor, partial curve]
2 | CC(=O)Nc1ccccc1C(=O)C(=O)Nc1ccc(F)c(Cl)c1 | inactive
3 | O=C(CN1CCCCC1)NCC(=O)Nc1ccc(F)c(F)c1F | inactive
4 | Cc1cc(C)nc(-n2nc(C)c(Br)c2Nc2ccc(Br)cc2)n1 | active: 3.7 µM
5 | COc1cc(/C=C(\C#N)C(=O)c2ccc(O)c(O)c2)cc(I)c1O | inconclusive [inhibitor, single point]
6 | COc1cc(-c2nc3cnccn3c2Nc2ccc(C(C)C)cc2)ccc1O | inconclusive [inhibitor, partial curve]
7 | O=C(NCC(c1cccs1)N1CCOCC1)c1cc(-c2ccc(F)cc2)nc2ccccc12 (centres undefined) | inconclusive [inhibitor, single point]
8 | Cc1cc(C(=O)CSCCCn2c(=O)[nH]c3ccccc32)c(C)n1C | active: 13.1 µM
9 | COCCCn1c(=O)c2ccccc2n(Cc2ccccc2C)c1=O | inactive
10 | N#CNC(N)=Nc1cccc(Cl)c1 | inconclusive [inhibitor, single point]
11 | CCOc1ccc(NS(=O)(=O)c2cc(Cl)ccc2OC)cc1 | inconclusive [inhibitor, single point]
12 | O=c1oc(C2(O)CCCCC2)cc2ccc(/C=C/c3ccc(F)cc3)cc12 | inconclusive [inhibitor, single point]
13 | COc1cccc(CN2CCCC(C(=O)c3ccc4c(c3)OCO4)C2)c1O (centres undefined) | inconclusive [inhibitor, single point]
14 | O=C(C1=C[C@@H](c2csc3ccccc23)C[C@@H](OCc2ccc(CO)cc2)O1)N1CCOCC1 | inconclusive [inhibitor, full curve, poor fit]
15 | O=C(c1cnc2nc3ccccc3n2c1)c1cc(F)ccc1O | inactive
16 | CC(C)CCn1c(N2CCN(Cc3ccccc3)CC2)nc2c1c(=O)[nH]c(=O)n2C | inconclusive [inhibitor, single point]
17 | CNS(=O)(=O)c1ccc(NC(=O)c2ccc(Cl)cc2Cl)cc1 | inactive
18 | Cc1c(Cl)cccc1NC(=O)Cn1c(-c2ccc(F)cc2)noc1=O | inconclusive [inhibitor, single point]
19 | COc1ccc(C)cc1NC(=O)CSc1nc2ccccc2nc1N1CC(C)OC(C)C1 (centres undefined) | inconclusive [inhibitor, full curve]
20 | O=C(CCc1ccccc1)NCCCNC(=O)CCc1ccccc1 | inconclusive [inhibitor, partial curve, poor fit]
21 | COCCN(CCOC)C(=O)CN1C(=O)NC(Cc2c[nH]c3ccccc23)C1=O (centres undefined) | inactive
22 | COc1cc(Br)cc(/C=N/NC(=O)Cc2ccc(C(F)(F)F)cc2[N+](=O)[O-])c1O | inconclusive [inhibitor, single point]
23 | Cc1ccc(S(=O)(=O)C(C#N)c2nc3ccccc3nc2N2CC(C)OC(C)C2)cc1C (centres undefined) | active: 13.1 µM

Row | Structure (SMILES) | Potency
24 | CCOc1ccc(C(C(=O)NCC2CCCO2)N(Cc2cccnc2)C(=O)c2snc(C(N)=O)c2N)cc1 (centres undefined) | inconclusive [inhibitor, partial curve, poor fit]
25 | COc1cc(NC(=O)c2cccs2)c(OC)cc1NC(=O)Nc1ccc(F)cc1 | inactive
26 | COc1ccc(NC(C)=O)cc1S(=O)(=O)NCCc1ccccn1 | inactive
27 | C#CCNC(=O)C1=C[C@@H](c2ccccc2)[C@H](CCCO)[C@@H](OCC)O1 | inconclusive [inhibitor, full curve, poor fit]
28 | COc1ccc(/C=N/Nc2nnc(C)n2N)cc1OC | inconclusive [inhibitor, single point]
29 | Cc1ccc(NC(=S)N(CCN(C)C)Cc2cc3cc(C)ccc3[nH]c2=O)cc1 | inconclusive [inhibitor, partial curve]
30 | C/C(=N\NC(=O)Cn1cnc2ccccc21)c1cccs1 | inactive
31 | CC(C)NC(=O)c1onc(CSc2cccc(F)c2)c1C(=O)O | inconclusive [inhibitor, full curve, poor fit]
32 | CCOc1cc(/C=C2\SC(=O)N=C2N)ccc1O | inconclusive [inhibitor, single point]
33 | Nc1cc(OC(=O)c2ccco2)nn1S(=O)(=O)c1ccc(F)cc1 | inactive
34 | COc1cc(C(=O)NNC(=O)C2CCCC2)cc(OC)c1OC | inactive
35 | CCOC(=O)C1CCN(CC(=O)Nc2cc(S(=O)(=O)N3CCOCC3)ccc2C)CC1 | inactive
36 | O=C(NCc1ccccn1)Nc1ccccc1C(F)(F)F | inactive
37 | COc1ccc(CCNC(=O)c2c(C)nn(-c3ccccc3)c2Cl)cc1OC | inactive
38 | O=C(c1ccccc1F)N(Cc1cccnc1)Cc1cc2cc3c(cc2[nH]c1=O)OCCO3 | inconclusive [inhibitor, single point]
39 | CCCCC(C(=O)NC1CCCC1)N(C(=O)c1snc(C(N)=O)c1N)c1ccc(OCC)cc1 (centres undefined) | inconclusive [inhibitor, full curve]
40 | CCCc1cc2c(=O)c(-c3ccccn3)c(C)oc2cc1O | inconclusive [inhibitor, single point]
41 | O=C(CSC1=NS(=O)(=O)c2ccccc2N1)Nc1nccs1 | inconclusive [inhibitor, single point]
42 | O=C(CN1CCCC1c1ccc2c(c1)OCCO2)NC(=O)Nc1ccccc1F (centres undefined) | inconclusive [inhibitor, single point]
43 | CCOc1ccc(OCC)c(NC(=O)CSc2nc3c(c(=O)n(C)c(=O)n3C)n2C(C)C)c1 | active: 4.15 µM
44 | O=C(Nc1ccc(Cl)cc1)c1ccc(Br)cc1F | inactive
45 | NC(=O)CC(NC(=O)Cc1cccc2ccccc12)c1ccc(N2CCC(N3CCCC3)CC2)c([N+](=O)[O-])c1 (centres undefined) | inactive
46 | CCN(C(=O)c1cc2cc(OC)ccc2oc1=O)c1ccccc1 | inactive

Row | Structure (SMILES) | Potency
47 | COc1ccc(NC(=O)CS(=O)(=O)c2cn(CC(=O)N(C(C)C)C(C)C)c3ccccc23)c(OC)c1 | inconclusive [inhibitor, partial curve, poor fit]
48 | CC12CCC(=O)N1c1c(sc3nc(N4CCOCC4)c4c(c13)CCCC4)C(=O)N2 (centres undefined) | inconclusive [inhibitor, partial curve]
49 | CS(=O)(=O)N1CCN(c2ccccc2NC(=O)CSc2ccc(Cl)cc2)CC1 | inconclusive [inhibitor, partial curve, poor fit]
50 | O=[N+]([O-])c1ccc(NC(=S)NCCc2ccc(F)cc2)cc1 | active: 10.4 µM
51 | O=C(NCC1(N2CCCCC2)CCCCC1)c1ccc(NS(=O)(=O)c2ccccc2)cc1 | inconclusive [inhibitor, single point]
52 | COc1cccc(N(C(=O)C2COc3ccccc3O2)C(C(=O)NC2CCCCC2)c2ccc(O)cc2)c1 (centres undefined) | inconclusive [inhibitor, partial curve]
53 | O=C(CCn1c(=S)oc2ccccc21)Nc1cccc(O)c1 | inactive
54 | CCCn1c(SCC(=O)N2CCc3ccccc3C2)nc2c1c(=O)n(C)c(=O)n2C | inactive
55 | Cc1cc(NC(=O)CCc2ccccc2)c([N+](=O)[O-])cc1C | inactive
56 | COc1ccccc1C1(O)CC2CCC(C1)N2S(=O)(=O)c1ccc(C(C)=O)cc1 (centres undefined) | inconclusive [inhibitor, partial curve, poor fit]
57 | CCc1ccc(CN2CCC(C(=O)Nc3ccc(Oc4ccccc4)nc3)CC2)o1 | inconclusive [inhibitor, single point]
58 | Cc1cc(O)c(C)c(O)c1/C=N/NC(=O)c1cccnc1 | inconclusive [inhibitor, partial curve]
59 | Cc1ccc(S(=O)(=O)NCCN2CCNC2=O)cc1 | inactive
60 | O=C(CSc1nnc(Cc2ccccc2)n1Cc1ccccc1)NCc1ccco1 | inconclusive [inhibitor, partial curve, poor fit]
61 | COc1ccc(N2CCN(C(=O)c3ccccc3N(C)S(=O)(=O)c3ccc(C)cc3)CC2)cc1 | inconclusive [inhibitor, partial curve]
62 | Cc1cc(-n2c(SCc3ccccc3F)nc3n[nH]c(C)c3c2=N)ccc1Cl | inconclusive [inhibitor, single point]
63 | CC(=O)N1N=C(c2cccc(Cl)c2)OC1c1cccc([N+](=O)[O-])c1 (centres undefined) | inconclusive [inhibitor, partial curve, poor fit]
64 | COCCNC(=O)c1c(NC(=O)c2ccco2)n(Cc2ccccc2)c2nc3ccccc3nc12 | inconclusive [inhibitor, single point]
65 | CCCCOc1ccc(/C=N/NC(=S)Nc2cccc(C)c2C)cc1 | inconclusive [inhibitor, single point]
66 | O=C(CN(c1ccccc1F)S(=O)(=O)c1ccccc1)NC1CCCCCC1 | inactive
67 | COc1cc(/C=N\NC(=O)OC(C)(C)C)ccc1OC(=O)c1ccco1 | inconclusive [inhibitor, single point]
68 | CC1Cn2c(nnc2C23CC4CC(CC(C4)C2)C3)S1 (centres undefined) | inconclusive [inhibitor, single point]
69 | O=C(CNC(=O)c1ccccc1)N/N=C/c1ccc([N+](=O)[O-])s1 | inconclusive [inhibitor, partial curve, poor fit]

— PubChem BioAssay AID504832 (National Center for Advancing Translational Sciences (NCATS), 2011)
